Results from PMC4242493.
The other results are listed elsewhere or left out. The list includes weakly bound sequences.

target: MaxL homodimer (UniProt P61244); experiment: universal protein-binding microarray (PBM); conditions: PBS-based mixture, 10 nM His-tagged protein dimer, 2% milk, 200 ng/uL BSA, 50 ng/uL salmon testes DNA, 0.02% TX-100; detection with Alexa 488 anti-His …; high values mean tight binding; most listed sequences are background and not binding sites; double strand, one strand shown
UniProt P61244, sequence (P61244 whole entry): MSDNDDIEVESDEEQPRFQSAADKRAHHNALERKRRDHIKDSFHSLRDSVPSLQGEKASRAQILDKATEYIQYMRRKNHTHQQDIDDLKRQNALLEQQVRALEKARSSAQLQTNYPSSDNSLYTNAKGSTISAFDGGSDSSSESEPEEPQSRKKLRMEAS

Sequence | binding signal (normalized occupancy)
AGTTGACA | 0.0728
CGGCCCTC | 0.0703
AGCTCTGG | 0.0678
AACGATGC | 0.0755
GATTCGGC | 0.0703
GACGACAA | 0.0733
CAGGGACA | 0.0703
CGAACGCC | 0.0735
AAGGTCGG | 0.07
CGCTCGAC | 0.0728
CGGCAAGA | 0.0698
AGGCCCCC | 0.0661
CCAGGATA | 0.0788
CAATGTCA | 0.0758
CTCAAAGA | 0.074
CTGATTAC | 0.08
GCGCGCGC | 0.0821
AAAGGGGC | 0.0711
TGGATGAA | 0.0769
GCGTCTGA | 0.0708
GCTCTGAC | 0.0706
ACATCTGG | 0.0804
CGTTGGTA | 0.0734
CTTCGGCC | 0.0673
AACTCATA | 0.0781

Sequence | binding signal (normalized occupancy)
ACCATAGT | 0.0797
ATATGTCG | 0.0832
CCACAATC | 0.0772
CAGTCGCC | 0.0682
AAAGGTAG | 0.0752
ATCTTACC | 0.0753
GTGCATGA | 0.0961
ATTATAGG | 0.077
GACTTCAC | 0.0759
CCTTGTTC | 0.0732
CAGACCGG | 0.0667
ACGGCTCC | 0.0698
CCGCCATA | 0.0852
GCAAAAAA | 0.0748
CCTACTTA | 0.0756
AAACCTTT | 0.0724
CGATACTC | 0.0759
CGAGGTGA | 0.0813
ACTCCGCC | 0.0702
GGTCATGA | 0.0834
GGTCCGAA | 0.0746
AATGTGCA | 0.0888
CAGTTGCA | 0.0721
ATGAAAGC | 0.0784
GATCATTA | 0.0838

Sequence | binding signal (normalized occupancy)
CCTACGAC | 0.072
GCCGTGAC | 0.0747
TCTTAGCA | 0.0782
ATGCTGAG | 0.0819
TATGACCA | 0.0767
ATGCATAC | 0.0887
GAATGTAC | 0.0769
CGATTGGC | 0.0736
GGACATTA | 0.085
GTCAGATA | 0.0773
GCCATAAA | 0.0813
ACTAAGAT | 0.0689
CGTCCTCA | 0.0791
GGCTAGAA | 0.0727
AACTAAAG | 0.0697
ATAGCGCC | 0.0747
ATTATACA | 0.0831
TGACAGCA | 0.0803
AACGTGGA | 0.115
GAGACGAA | 0.0673
GCGCGAAC | 0.0712
CAGAGGAA | 0.0684
ATTGACAG | 0.0739
TAAAGTCA | 0.0763
GGATGAAA | 0.0731

Sequence | binding signal (normalized occupancy)
CAATCTCG | 0.0753
CCCAGCGG | 0.068
GTCGAAGA | 0.0714
CAGGGAAG | 0.0792
ATTTGAAG | 0.0761
CTACTCAG | 0.0693
CCACTCCG | 0.0733
CTAGTTAA | 0.0755
ACCCTTAG | 0.0693
AGAGACCG | 0.072
GCGGAAGA | 0.0683
ACCACGAT | 0.0936
AGTGTCAC | 0.0806
AACACACT | 0.0856
GGATCTAC | 0.0757
ATAGTTCA | 0.073
GCGCTCAA | 0.0703
AGATGACC | 0.0777
AAAGGTTG | 0.074
GACAATGC | 0.0818
ATGGTGTG | 0.0899
ACTATCAG | 0.0778
AAGTCGAC | 0.0703
CCCCTTCA | 0.0836
GGTGCAGA | 0.0738

Sequence | binding signal (normalized occupancy)
ACATATGG | 0.0977
CGCTACCA | 0.0744
ATGATTTC | 0.0798
AAGATAAG | 0.0782
AAAATCCG | 0.0752
GATAGAAC | 0.0781
CTACAGCA | 0.0757
GCGTATAC | 0.0802
ACGAGCAT | 0.0893
ATTGGCCG | 0.0716
ACAGCCTA | 0.0773
ACCTAGCG | 0.0753
CCAGCCGG | 0.0652
CAGGAGAC | 0.0746
CCACATGC | 0.163
CAAGATCG | 0.0763
ATAAACTC | 0.0764
GCATGGGA | 0.0967
ACCTTAGC | 0.0788
AAGCGTTG | 0.076
AGGCATTG | 0.0775
ACCCCAGG | 0.0797
AAGAGAGT | 0.0755
CCTGTAGC | 0.0715
CCACTTTC | 0.0756

Sequence | binding signal (normalized occupancy)
AACCTCAC | 0.0803
AGGGTTAT | 0.0796
CTCCACTC | 0.0775
CTACGTGA | 0.0799
AGGGTCAC | 0.0776
GAGTCATC | 0.0754
GAGCCGCA | 0.0693
ACATAACG | 0.0824
GTTGGGTA | 0.0776
GCATACCC | 0.0825
CTCTTGTC | 0.0714
CGAATCCA | 0.0805
CAAGCGAC | 0.0732
GCTTCCAC | 0.0784
CGGCATAG | 0.0745
ACGTAAAC | 0.0734
AGCATGTC | 0.1
AAGCTCCT | 0.0659
CAGCAGGA | 0.0731
GGAGAGTA | 0.0751
AATCTGCC | 0.0731
CTTGCTGA | 0.0724
ATGCACTC | 0.0862
TCGTAACA | 0.0767
CGTGCCGC | 0.0875

Sequence | binding signal (normalized occupancy)
CACAGGCG | 0.0711
CCAGGCTA | 0.0722
ATCCGATG | 0.0766
GTGGCTTA | 0.0837
AGTTCTGC | 0.0709
AGCCGCCT | 0.0668
AGCACTTA | 0.0747
ATATACCG | 0.087
GCCACGCC | 0.0925
AACTACCA | 0.075
CAGAAGGC | 0.0707
ATCCTAGC | 0.0775
AGGCACCT | 0.078
ACTGGCCC | 0.0649
ACACAAGC | 0.0739
CCAATAGA | 0.0735
CCGTAATC | 0.0712
AAACGAGA | 0.0701
CGAATAAG | 0.0736
CCTACGCG | 0.0802
AAGAGTCG | 0.0695
ACACTGGC | 0.0774
GAAAAGGA | 0.074
ATCAGCTA | 0.0696
ATTTGATC | 0.0756

Sequence | binding signal (normalized occupancy)
CAGGACGA | 0.0712
AAGACGGC | 0.07
ATCCGCAG | 0.0714
AACGTACC | 0.08
GCCCATGA | 0.0786
GCCCCTAA | 0.0726
CACAACAA | 0.0752
AAAAGAGT | 0.0704
AGTCTCCC | 0.0733
AGCAGCAC | 0.0724
AAGACCGA | 0.0693
CGCGTACA | 0.0792
GTAAAAGA | 0.0725
TGAAAGAA | 0.0757
ATGAAGCC | 0.0711
GCCAAAAC | 0.0716
TGGGCCAA | 0.0724
CCTGAGAC | 0.0712
AGTCATTG | 0.0769
GCTGAAAC | 0.0743
ATGAGCTA | 0.0792
AGTGCTAA | 0.074
AGTAACTA | 0.0739
CAGTGAGA | 0.0736
ACTTGGAA | 0.0722

Sequence | binding signal (normalized occupancy)
ACAGGTAG | 0.0749
CTCGACAC | 0.0782
AAACCAGT | 0.0721
GTGTTAGA | 0.0823
AACAAAGC | 0.0681
TAGTGACA | 0.0792
CATCAGAA | 0.0803
AGAAACCG | 0.0723
AACGGACC | 0.0686
TGCTCCCA | 0.076
CTTATGCC | 0.0794
CAGTTTTA | 0.0693
CCGCTCAC | 0.0669
AGCACTAC | 0.0757
CCTTGCTC | 0.0719
AGTTGTAT | 0.0775
CAACCCAG | 0.0693
ATTGGTTG | 0.0742
AGAATAGG | 0.0758
